{
  "source": "PubChem BioAssay AID504332",
  "about": "(National Center for Advancing Translational Sciences (NCATS), 2011)",
  "note": "About 31,000 (8.9%) of roughly 350,000 compounds were called active. The shares of active, inactive and inconclusive entries below differ from those in the screen. Calls come from the whole dose curve; as a rule, active = well fitted inhibition curve with a large enough effect; inconclusive = small, poorly fitted or top-dose-only effect; inactive = no such curve, though single readings can be large or run the other way. A potency beside an inconclusive call is a rough fit, not a confirmed value. % is set by controls: 0 for no effect and ±100 for the full control effect; potency is the fitted concentration of half-maximal effect; tags give direction and shape of the fitted curve.",
  "data": [
    {"biological_target": "Histone-lysine N-methyltransferase EHMT2 (Homo sapiens) (UniProt Q96KQ7)", "sequence (Q96KQ7 whole entry, looked up)": "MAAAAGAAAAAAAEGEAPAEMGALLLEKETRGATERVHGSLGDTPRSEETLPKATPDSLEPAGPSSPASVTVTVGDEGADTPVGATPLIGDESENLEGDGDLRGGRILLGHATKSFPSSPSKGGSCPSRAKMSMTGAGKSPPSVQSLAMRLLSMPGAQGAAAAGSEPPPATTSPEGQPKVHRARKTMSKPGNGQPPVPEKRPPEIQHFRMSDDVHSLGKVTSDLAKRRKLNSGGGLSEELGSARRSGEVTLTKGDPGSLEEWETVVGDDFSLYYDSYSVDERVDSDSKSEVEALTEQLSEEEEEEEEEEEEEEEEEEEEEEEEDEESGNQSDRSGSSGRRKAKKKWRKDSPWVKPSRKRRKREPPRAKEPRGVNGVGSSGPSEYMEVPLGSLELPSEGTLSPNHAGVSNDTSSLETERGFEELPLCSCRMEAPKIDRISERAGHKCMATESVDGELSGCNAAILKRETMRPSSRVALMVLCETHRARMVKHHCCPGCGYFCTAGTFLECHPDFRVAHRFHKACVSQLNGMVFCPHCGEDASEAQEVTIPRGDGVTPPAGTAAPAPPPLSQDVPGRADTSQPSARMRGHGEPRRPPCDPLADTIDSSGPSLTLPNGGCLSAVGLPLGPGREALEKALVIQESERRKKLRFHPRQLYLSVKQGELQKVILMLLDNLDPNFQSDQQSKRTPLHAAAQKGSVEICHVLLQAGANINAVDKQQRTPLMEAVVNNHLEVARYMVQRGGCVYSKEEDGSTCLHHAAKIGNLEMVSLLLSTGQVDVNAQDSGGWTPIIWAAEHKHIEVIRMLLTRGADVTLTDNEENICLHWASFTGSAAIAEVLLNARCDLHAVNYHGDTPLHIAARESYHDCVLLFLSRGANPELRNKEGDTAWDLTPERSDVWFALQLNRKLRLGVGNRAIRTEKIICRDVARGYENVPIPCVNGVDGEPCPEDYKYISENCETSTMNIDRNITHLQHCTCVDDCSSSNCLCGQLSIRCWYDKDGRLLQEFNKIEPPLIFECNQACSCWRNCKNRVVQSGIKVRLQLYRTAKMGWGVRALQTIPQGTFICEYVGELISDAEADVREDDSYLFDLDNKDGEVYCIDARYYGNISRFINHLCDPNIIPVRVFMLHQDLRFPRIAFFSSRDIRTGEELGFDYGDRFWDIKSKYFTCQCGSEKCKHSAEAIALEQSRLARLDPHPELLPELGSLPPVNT", "assay": "qHTS Assay for Inhibitors of Histone Lysine Methyltransferase G9a; note: nearly all actives have a fitted effect of over 75% in size", "conditions": "G9a H3K9 monomethylation, AlphaScreen, 2 h; activity, negative = inhibition: at 59 µM (top of the series) unless noted", "method_in_brief": "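AlphaScreen read-out: biotin-H3K9 peptide (500 nM) methylation by 20 nM enzyme with 20 uM SAM, 2 h at room temperature after 15 min compound preincubation; anti-monomethyl H3K9 antibody plus donor/acceptor beads, 10 min dark.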", "values": [
      {"smiles": "CC1(C)CC(=O)C2=C(C1)OC(N)=C(C#N)C2Cc1ccccc1", "note": "(centres undefined)", "Potency": "inconclusive: 22.4 µM [inhibitor, single point]"},
      {"smiles": "Cc1cccc2c1N(CCOc1ccc(C(C)(C)C)cc1)C(=O)C2=O", "Potency": "inconclusive: 6.31 µM [inhibitor, single point]"},
      {"smiles": "O=C(CCS(=O)(=O)c1ccc(Br)cc1)N1CCN(c2ccc(F)cc2)CC1", "Potency": "active: 50.1 µM"},
      {"smiles": "COC(=O)N/N=C1/C/C(=N\\NC(=O)OC)c2ccccc21", "Potency": "inconclusive: 89.1 µM [inhibitor, partial curve, poor fit]"},
      {"smiles": "CNC(=O)C(=O)NCC1CCCN1S(=O)(=O)c1cccs1", "note": "(centres undefined)", "activity, negative = inhibition": "inactive: 2.66% [at 102 µM]"},
      {"smiles": "O=C1/C(=C/c2ccco2)CCC1C1CCCC1", "note": "(centres undefined)", "Potency": "inconclusive: 39.8 µM [inhibitor, single point]"},
      {"smiles": "CN(CC(=O)Nc1ccc(F)cc1)C(=O)c1cn(-c2ccccc2)nc1-c1cccs1", "Potency": "inconclusive: 25.1 µM [inhibitor, single point]"},
      {"smiles": "O=C(CSCc1cccc(Br)c1)N=Nc1c(O)[nH]c2ccccc12", "activity, negative = inhibition": "inactive: 20.7% [at 0.0925 µM]"},
      {"smiles": "COc1ccc(C2c3ccc4ccccc4c3Oc3ncn(Cc4ccco4)c(=N)c32)cc1OC", "note": "(centres undefined)", "Potency": "inconclusive: 25.1 µM [inhibitor, single point]"},
      {"smiles": "COc1ccc(NC(=O)c2sccc2C)c([N+](=O)[O-])c1", "Potency": "inconclusive: 35.5 µM [inhibitor, partial curve, poor fit]"},
      {"smiles": "COc1ccc(CCCc2nnc(SCC(=O)Nc3ccc(C)cc3)o2)cc1", "Potency": "inconclusive: 0.141 µM [inhibitor, full curve, poor fit]"},
      {"smiles": "CCOC(=O)Cc1nc2ccccc2n(CC#N)c1=O", "Potency": "inconclusive: 28.2 µM [inhibitor, partial curve, poor fit]"},
      {"smiles": "O=C(c1nc2ccc(Cl)cn2c1CN1CCC(O)CC1)N1CCc2ccccc2C1", "Potency": "inconclusive: 14.1 µM [inhibitor, partial curve, poor fit]"},
      {"smiles": "CCOc1ccc(-c2ccc(NS(=O)(=O)c3ccc(C)cc3)cc2)nn1", "activity, negative = inhibition": "inactive: 0.761%"},
      {"smiles": "CCCCN(CC)CCCNC(=O)C1CCN(c2ncnc3c2sc2cccc(F)c23)CC1", "Potency": "inconclusive: 50.1 µM [inhibitor, partial curve]"},
      {"smiles": "COc1ccc(C(O)P(=O)(OC(C)C)c2ccc(N(C)C)cc2)c(OC)c1", "note": "(centres undefined)", "activity, negative = inhibition": "inactive: 15.5% [at 0.501 µM]"},
      {"smiles": "CN(C)CCNC(=O)Cn1nc(C(F)F)cc1C1CC1", "activity, negative = inhibition": "inconclusive: -59.8% [inhibitor] [at 12.7 µM]"},
      {"smiles": "Cc1ccsc1CN(C(=O)COc1ccc(Br)cc1)C1CCS(=O)(=O)C1", "note": "(centres undefined)", "Potency": "inconclusive: 0.316 µM [inhibitor, partial curve, poor fit]"},
      {"smiles": "O=C1N=C(N2CCOCC2)CS1", "Potency": "inconclusive: 89.1 µM [inhibitor, partial curve, poor fit]"},
      {"smiles": "Cc1ccc(C)c(N2CCN(CCCNC(=O)c3cnn(-c4ccccc4Cl)c3C3CCN(C(=O)OC(C)(C)C)CC3)CC2)c1", "Potency": "inconclusive: 10 µM [inhibitor, partial curve, poor fit]"},
      {"smiles": "O=C(NCc1ccc(F)cc1)c1cc2n(n1)CCCN(Cc1ccc(F)cc1)C2=O", "activity, negative = inhibition": "inactive: -23.7%"},
      {"smiles": "COc1cccc2sc(N(CCCN(C)C)C(=O)COc3ccc(Cl)cc3)nc12", "Potency": "active: 79.4 µM"},
      {"smiles": "CCCn1c(=O)[nH]c(=O)c2c1nc(-c1ccc(OC(F)(F)C(F)C(F)(F)F)cc1)n2CCOC", "note": "(centres undefined)", "Potency": "active: 25.1 µM"},
      {"smiles": "C=CCN(C)CC/C=C1\\c2ccccc2CSc2ccccc21", "activity, negative = inhibition": "inactive: -14.9%"},
      {"smiles": "CCc1ccc(-c2csc3[n+]2CCN3C(C)=O)cc1", "Potency": "active: 11.2 µM"},
      {"smiles": "CCOc1cc(CNc2ccc(O)cc2)ccc1OCc1ccc(Cl)cc1Cl", "Potency": "inconclusive: 17.8 µM [inhibitor, partial curve, poor fit]"},
      {"smiles": "Cc1c(Cl)cccc1NC(=O)c1ncn[nH]1", "Potency": "active: 11.2 µM"},
      {"smiles": "COc1cc(NC(=O)CN(c2ccc(C)cc2)S(=O)(=O)c2cccc3nonc23)cc(OC)c1", "Potency": "inconclusive: 3.16 µM [inhibitor, full curve]"},
      {"smiles": "COc1ccc(CN2CCNC(=O)C2CC(=O)NC2CCC2)c(OC)c1", "note": "(centres undefined)", "activity, negative = inhibition": "inactive: -17.6% [at 102 µM]"},
      {"smiles": "CC(=O)c1c(OC(=O)c2ccccc2Br)ccc2c(C)cc(=O)oc12", "Potency": "inconclusive: 39.8 µM [inhibitor, partial curve, poor fit]"},
      {"smiles": "COCCn1c(SCC(=O)c2ccc3c(c2)OCCO3)nnc1-c1ccoc1C", "activity, negative = inhibition": "inconclusive: -81.9% [inhibitor]"},
      {"smiles": "Oc1ccc(CNc2ccc(C(F)(F)F)cc2Cl)c2cccnc12", "Potency": "active: 1.78 µM"},
      {"smiles": "S=c1[nH]nc(C2CCCCC2)n1/N=C/c1cccc(Cl)c1Cl", "Potency": "active: 8.91 µM"},
      {"smiles": "CCOc1cc(C(=O)Nc2ccc(N3CCOCC3)cc2)cc(Br)c1OC", "Potency": "inconclusive: 25.1 µM [inhibitor, single point]"},
      {"smiles": "O=C(O)c1ccc(COCC(F)(F)C(F)F)o1", "Potency": "inconclusive: 20 µM [inhibitor, single point]"},
      {"smiles": "CN(Cc1c(F)cccc1Cl)C(=O)CCc1c[nH]c2ccccc12", "Potency": "inconclusive: 56.2 µM [inhibitor, single point]"},
      {"smiles": "Cc1cc(Nc2ccc3c(c2)OCCO3)c2cc(Cl)ccc2n1", "Potency": "inconclusive: 28.2 µM [inhibitor, single point]"},
      {"smiles": "CCOC(=O)C(Sc1nnc(-c2ccncc2)o1)C(C)=O", "note": "(centres undefined)", "Potency": "active: 7.94 µM"},
      {"smiles": "COc1ccc(NC(=O)Cn2c(SCc3cc(C)ccc3C)nc3ccncc32)c(OC)c1OC", "Potency": "inconclusive: 8.91 µM [inhibitor, partial curve]"},
      {"smiles": "O=S(=O)(Nc1ccccc1)c1ccc(NS(=O)(=O)c2c(F)cccc2F)cc1", "Potency": "active: 50.1 µM"},
      {"smiles": "O=C(Cn1cc(S(=O)(=O)Cc2ccccc2)c2ccccc21)Nc1ccccc1", "Potency": "inconclusive: 25.1 µM [inhibitor, single point]"},
      {"smiles": "CCN(CC)S(=O)(=O)c1ccc(C)c(NC(=O)COC(=O)CN2C(=O)NC(C)(C)C2=O)c1", "Potency": "inconclusive: 39.8 µM [inhibitor, partial curve]"},
      {"smiles": "O=[N+]([O-])c1cccc(N/N=C/c2cc([N+](=O)[O-])ccc2O)c1", "activity, negative = inhibition": "inactive: -5.16% [at 102 µM]"},
      {"smiles": "CC(=O)O[C@H]1C[C@@H]2CCC3C(CC[C@@]4(C)[C@H]3C[C@H]([N+]3(C)CCCCC3)[C@@H]4OC(C)=O)[C@@]2(C)C[C@@H]1[N+]1(C)CCCCC1", "note": "(some centres undefined)", "activity, negative = inhibition": "inactive: 9.36% [at 12.7 µM]"},
      {"smiles": "Cc1ccc(CCNC(=O)CS(=O)Cc2nc(-c3cccc(C)c3)oc2C)cc1", "note": "(centres undefined)", "Potency": "inconclusive: 50.1 µM [inhibitor, partial curve]"},
      {"smiles": "COc1ccc(NC(=S)NC(=O)c2cc3ccccc3o2)c(OC)c1", "Potency": "active: 10 µM"},
      {"smiles": "CCOc1cc(CNC(=O)C2COc3ccccc3C2)cc(OCC)c1OCC", "note": "(centres undefined)", "activity, negative = inhibition": "inactive: 0.239%"},
      {"smiles": "CCOC(=O)c1cc2c(ccn2C)n1Cc1ccccc1C", "Potency": "inconclusive: 22.4 µM [inhibitor, single point]"},
      {"smiles": "Cc1ccc2[nH]c(=O)c(CN(Cc3ccc4c(c3)OCO4)Cc3nnnn3Cc3ccco3)cc2c1", "activity, negative = inhibition": "inconclusive: -69% [inhibitor]"},
      {"smiles": "O=S(=O)(N[C@H]1C[C@@H](NS(=O)(=O)OCC(Cl)(Cl)Cl)C2CCCCC21)OCC(Cl)(Cl)Cl", "note": "(some centres undefined)", "Potency": "inconclusive: 89.1 µM [inhibitor, single point]"},
      {"smiles": "COc1ccc2c(c1)c1c(c(=O)n(Cc3ccccc3)c(=O)n1CC(=O)NCc1ccccc1Cl)n2C", "activity, negative = inhibition": "inactive: -5.24%"},
      {"smiles": "Fc1ccc(-c2noc3ncnc(NCCc4ccccc4)c23)cc1", "activity, negative = inhibition": "inactive: 6.36%"},
      {"smiles": "Cn1c(CNc2ccc(F)cc2)nc2ccccc21", "activity, negative = inhibition": "inactive: 13.3% [at 102 µM]"},
      {"smiles": "CCCCCn1c(C(C)NC(=O)c2ccccc2)nc2ccccc21", "note": "(centres undefined)", "activity, negative = inhibition": "inactive: 7.07%"},
      {"smiles": "COc1cc(C2N(c3ccc(Cl)c(Cl)c3)C(=O)C3CCCN32)cc(OC)c1OC", "note": "(centres undefined)", "Potency": "inconclusive: 89.1 µM [inhibitor, single point]"},
      {"smiles": "O=[N+]([O-])c1ccc(Sc2ccc(Cl)c(Cl)c2)nc1", "activity, negative = inhibition": "inconclusive: -60.2% [inhibitor]"},
      {"smiles": "Cc1cccnc1NC(=O)c1ccc(NS(=O)(=O)c2ccc3[nH]c(=O)[nH]c3c2)cc1", "activity, negative = inhibition": "inactive: 10.5% [at 102 µM]"},
      {"smiles": "CCOc1cc(OCC)c(C(=O)CCC(=O)O)cc1OCC", "Potency": "inconclusive: 3.16 µM [inhibitor, partial curve, poor fit]"},
      {"smiles": "CC1(c2ccccc2)NC(=O)N(NC(=O)COC(=O)c2cc(Br)ccc2O)C1=O", "note": "(centres undefined)", "activity, negative = inhibition": "inactive: -37% [at 102 µM]"},
      {"smiles": "COc1ccc(NC2CCCN(C(=O)CCN3CCOCC3)C2)cc1", "note": "(centres undefined)", "Potency": "inconclusive: 0.316 µM [inhibitor, full curve, poor fit]"},
      {"smiles": "COc1ccc(C2C(C(=O)Nc3cc(C)on3)c3ccccc3C(=O)N2C)cc1", "note": "(centres undefined)", "Potency": "inconclusive: 89.1 µM [inhibitor, partial curve, poor fit]"},
      {"smiles": "COc1ccc(S(=O)(=O)Nc2ccc3c(c2)N(C(C)=O)CCC3)cc1F", "activity, negative = inhibition": "inactive: 6.21%"},
      {"smiles": "O=C(NCCc1ccccc1Cl)c1ccc(Cn2c(=O)c3cccn3c3cccnc32)cc1", "Potency": "inconclusive: 20 µM [inhibitor, single point]"},
      {"smiles": "CCOC(=O)c1ccc(NC(=O)CN2C(=O)CSCC2=O)cc1", "Potency": "inconclusive: 89.1 µM [inhibitor, single point]"},
      {"smiles": "Cc1ccc(C(C)C)c(OCC(=O)NCC2(N(C)C)CCCCC2)c1", "activity, negative = inhibition": "inactive: -0.375%"},
      {"smiles": "COc1ccc(CCn2cc3c(c2-c2ccc(Br)cc2)c(=O)n(C)c(=O)n3C)cc1OC", "Potency": "inconclusive: 39.8 µM [inhibitor, partial curve, poor fit]"},
      {"smiles": "COc1ccc(CNC(=O)CCn2cccn2)cc1", "activity, negative = inhibition": "inactive: -4.8%"},
      {"smiles": "Cc1ccc(-n2c(C)cc3c2CC(C)(C)CC3=O)cc1C", "Potency": "inconclusive: 7.08 µM [inhibitor, full curve, poor fit]"},
      {"smiles": "COCCCNCCOc1cc(C(C)C)ccc1C", "Potency": "inconclusive: 10 µM [inhibitor, partial curve, poor fit]"}
    ]}
  ]
}
